Out of some 390,000 compounds screened, about 17,000 (4.4%) were called active. The inconclusive results got no clear call from the source; some entries with a clear call stand among them for comparison. The call rests on the fitted dose curve; in most records, active means well fitted inhibition curve with a large enough effect; inconclusive means small, poorly fitted or top-dose-only effect; inactive means no such curve, though single readings can be large or run the other way. A potency beside an inconclusive call is a rough fit, not a confirmed value.
These molecules were tested against Lysine-specific demethylase 4A (Homo sapiens) (UniProt O75164) (assay: qHTS Assay for Inhibitors of JMJD2A-Tudor Domain). Details: AlphaScreen JMJD2A-Tudor / H3K4me3 peptide binding; series mostly up to 114 µM.
Further: nearly all actives have a fitted effect of over 50% in size.
Potency means the concentration at half of the fitted maximal effect; tags describe the fitted curve by direction and shape.

UniProt O75164, sequence (O75164 whole entry, looked up, the tested form may be a part): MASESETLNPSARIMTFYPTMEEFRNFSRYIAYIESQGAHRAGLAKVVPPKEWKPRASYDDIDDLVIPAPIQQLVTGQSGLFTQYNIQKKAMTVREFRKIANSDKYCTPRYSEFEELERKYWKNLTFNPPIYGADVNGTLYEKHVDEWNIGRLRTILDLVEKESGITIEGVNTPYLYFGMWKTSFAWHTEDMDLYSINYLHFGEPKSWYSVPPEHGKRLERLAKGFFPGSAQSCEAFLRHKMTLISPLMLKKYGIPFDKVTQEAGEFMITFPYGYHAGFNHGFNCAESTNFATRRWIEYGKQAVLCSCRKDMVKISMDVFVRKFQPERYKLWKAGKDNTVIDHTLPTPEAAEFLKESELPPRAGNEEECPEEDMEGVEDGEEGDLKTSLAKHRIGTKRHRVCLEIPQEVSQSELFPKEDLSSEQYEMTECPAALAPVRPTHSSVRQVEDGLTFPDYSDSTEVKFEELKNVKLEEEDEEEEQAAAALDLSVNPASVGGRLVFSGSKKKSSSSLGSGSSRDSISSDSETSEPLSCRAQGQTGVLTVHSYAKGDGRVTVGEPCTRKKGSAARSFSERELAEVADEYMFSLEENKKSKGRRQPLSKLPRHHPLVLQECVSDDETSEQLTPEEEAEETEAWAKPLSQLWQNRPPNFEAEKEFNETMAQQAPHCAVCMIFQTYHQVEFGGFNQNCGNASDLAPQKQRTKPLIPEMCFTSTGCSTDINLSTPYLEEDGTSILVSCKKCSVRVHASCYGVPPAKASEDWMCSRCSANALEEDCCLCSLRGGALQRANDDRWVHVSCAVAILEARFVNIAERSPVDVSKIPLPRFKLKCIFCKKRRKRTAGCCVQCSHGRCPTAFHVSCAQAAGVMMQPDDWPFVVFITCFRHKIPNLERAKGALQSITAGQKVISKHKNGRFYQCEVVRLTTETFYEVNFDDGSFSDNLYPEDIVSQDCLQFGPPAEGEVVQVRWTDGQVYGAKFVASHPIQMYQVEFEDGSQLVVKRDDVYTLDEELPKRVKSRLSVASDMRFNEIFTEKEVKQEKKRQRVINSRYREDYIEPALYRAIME

Potency, inconclusive:
Cc1ccc(C(=O)N/C(=C\c2ccc(-c3ccccc3[N+](=O)[O-])o2)C(=O)NCCCN2CCOCC2)cc1 89.1 µM [inhibitor, partial curve], CC1CC(C)(C)NC2(CCCC2)N1 (stereo not given) 39.8 µM [inhibitor, single point], CCCc1ccc2oc(C(=O)N(C)Cc3ccn[nH]3)c(C)c2c1 70.8 µM [inhibitor, partial curve], O=C1C=C(C2OC(CO)C(O)C2O)C(=O)N1 (stereo not given) 35.5 µM [inhibitor, single point], CC1(C)Cc2c(c(N3CCOCC3)nc3snc(Br)c23)CO1 79.4 µM [inhibitor, partial curve], CCCCCCCCCC[n+]1cccc2c3ccccc3ccc21 39.8 µM [inhibitor, single point], O=C(N/N=C\c1cccnc1)c1cc(-c2ccccc2)nc2c(Cl)cccc12 79.4 µM [inhibitor, partial curve], Cc1ccc(NS(=O)(=O)c2ccc(-c3cnc(C4CC4)o3)cc2)cc1 56.2 µM [inhibitor, partial curve], C[C@H](CO)N1C[C@H](C)[C@@H](CN(C)C(=O)Nc2ccccc2)Oc2ccc(NC(=O)C3CC3)cc2C1=O 4.47 µM [inhibitor, partial curve, poor fit], O=C(c1ccco1)N(CCCN1CCOCC1)c1nc(-c2ccc(F)cc2)cs1 79.4 µM [inhibitor, partial curve], CCCc1n(CC)c2ccccc2[n+]1CC(O)COC1CCCCC1 (stereo not given) 14.1 µM [inhibitor, partial curve], O=[N+]([O-])c1cc(S(=O)(=O)C(F)(F)F)ccc1Sc1nc2ccccc2[nH]1 12.6 µM [inhibitor, full curve, poor fit], COc1ccc(CNC(=O)c2sc(=S)n(-c3ccc(OC)cc3)c2N)cc1 22.4 µM [inhibitor, partial curve], CCCCCOc1ccc(C2C(C(=O)c3ccc(C)o3)=C(O)C(=O)N2c2cc(C)on2)cc1 (stereo not given) 35.5 µM [inhibitor, full curve, poor fit], CCc1ccc(Nc2nc(N3CCOCC3)nc(N3CCOCC3)n2)cc1 70.8 µM [inhibitor, partial curve], Cc1nnc2ccc(-c3ccc(NC(=O)Cc4cccs4)cc3)nn12 56.2 µM [inhibitor, partial curve], O=C(N/N=C/c1sc(N2CCCCC2)nc1-c1cccs1)C1CC1 4.47 µM [inhibitor, partial curve], Cc1ccccc1CNS(=O)(=O)c1c(C)[nH]c(C)c1C(=O)N1CCCCC1 17.8 µM [inhibitor, full curve], O=C(CSc1ccccn1)Nc1ccc(N2CCOCC2)cc1 22.4 µM [inhibitor, single point], Cc1cccc(Cc2nnc(CCC(=O)NCc3ccncc3C)o2)c1 28.2 µM [inhibitor, single point], Cc1c(C)n(Cc2ccccc2)c2ccc(C(=O)NCCN3CCOCC3)cc12 56.2 µM [inhibitor, partial curve], Cc1ccc(C)c(/C(O)=C2/C(=O)C(=O)N(CCN3CCOCC3)C2c2ccc(C)o2)c1 (stereo not given) 79.4 µM [inhibitor, single point], Cc1nn2c(=O)cc(COC(=O)c3ccc(NC(=O)c4ccc(C(C)(C)C)cc4)cc3)nc2s1 79.4 µM [inhibitor, partial curve], Cn1cccc1C(=O)N1CCN(c2cccc(C(F)(F)F)c2)CC1 50.1 µM [inhibitor, partial curve], O=[N+]([O-])c1cccc(C2NCC(c3ccccc3Cl)c3c2[nH]c2ccccc32)c1 (stereo not given) 15.8 µM [inhibitor, full curve], CCCCCCCC[n+]1cccc2c3ccccc3ccc21 31.6 µM [inhibitor, single point], COc1ccc(OCc2nnc3n2N=C(c2ccc(OC)cc2)CS3)cc1 56.2 µM [inhibitor, partial curve, poor fit], CSc1ccc(NC(=O)NCCN2CCc3ccccc3C2)cc1 44.7 µM [inhibitor, partial curve], O=C(COc1ccc(Cl)cc1Cl)N/N=C/c1ccc[nH]1 56.2 µM [inhibitor, partial curve], Nc1nc(CN2CCN(c3ccccc3F)CC2)nc(N2CCCc3ccccc32)n1 56.2 µM [inhibitor, partial curve], COc1ccc([C@H]2[C@H](C(=O)OC(C)(C)C)N3N=Cc4ccccc4C3C23C(=O)c2ccccc2C3=O)c(OC)c1 (stereo not given in full) 39.8 µM [inhibitor, partial curve], COc1cc(Cl)c(NC(=O)CN(C)S(=O)(=O)c2ccc3[nH]c4c(c3c2)CCCC4)c(OC)c1 14.1 µM [inhibitor, full curve, poor fit], O=C1CC(O)(C(F)F)Oc2ccc3ccccc3c21 (stereo not given) 100 µM [inhibitor, partial curve, poor fit], Cc1cccc(C(=O)Nc2sc3c(c2C(=O)O)CCCC3)c1 44.7 µM [inhibitor, partial curve], Cc1ccc(S(=O)(=O)C(C#N)c2nc3ccccc3nc2N2CC(C)OC(C)C2)cc1C (stereo not given) 56.2 µM [inhibitor, partial curve], CCc1nn2c(=O)cc(COc3ccc(NC(=O)c4ccco4)cc3)nc2s1 44.7 µM [inhibitor, partial curve], Cn1cccc1CC(=O)N/N=C/c1ccc([N+](=O)[O-])cc1 63.1 µM [inhibitor, partial curve, poor fit], O=C(Nc1cccnc1)C1CC(c2ccccc2O)=NO1 (stereo not given) 89.1 µM [inhibitor, single point], CCCC(=O)Nc1ccc2c(c1)nc(CN1CCN(C(=O)OCC)CC1)n2C 15.8 µM [inhibitor, partial curve], O=C(NNc1nc(-c2ccccc2)cs1)c1ccccc1 15.8 µM [inhibitor, partial curve], CC(=O)c1cc(CC(=O)N2CCc3c([nH]c4ccccc34)C2c2ccccn2)cs1 (stereo not given) 14.1 µM [inhibitor, partial curve], COc1cc(/C=N\NC(=O)OC(C)(C)C)ccc1OC(=O)c1ccco1 56.2 µM [inhibitor, partial curve, poor fit]

Potency, active:
O=C(O)CCNc1cc(N2CCN(C(=O)c3ccco3)CC2)c2noc3c2c1C(=O)c1ccccc1-3 17.8 µM, Cn1c(SCc2cccc(F)c2)nnc1-c1ccccn1 79.4 µM, Cc1cc(C(=O)CSCCCn2c(=O)[nH]c3ccccc32)c(C)n1C 50.1 µM, COc1cc(/C=C(\C#N)C(=O)c2ccc(O)c(O)c2)cc(I)c1O 8.91 µM, CCOC(=O)C1CCN(CC(=O)Nc2cc(S(=O)(=O)N3CCOCC3)ccc2C)CC1 3.98 µM, Cc1ccccc1NC(=S)NCCSc1ccc(Cl)cc1 89.1 µM, CC(C)(C)OC(=O)[C@H](CCCCN)NC(=O)c1nc[nH]c1C(=O)N[C@@H](CCCCN)C(=O)OC(C)(C)C 50.1 µM, COc1cc(Br)cc(/C=N/NC(=O)Cc2ccc(C(F)(F)F)cc2[N+](=O)[O-])c1O 89.1 µM, CC(C)c1ccccc1-n1cc[nH]c1=S 22.4 µM

Potency, inactive:
CCCCn1c(N)c(N(CCOC)C(=O)CN(C)S(=O)(=O)c2ccc(F)cc2)c(=O)[nH]c1=O, CCc1ccc(OCC(=O)NCC(c2ccc(Cl)cc2)N2CCOCC2)cc1 (stereo not given), COc1ccccc1CNS(=O)(=O)CCNC(=O)c1ccccc1, CC(NC(=O)c1ccccc1Cl)C1CC2CCC1C2 (stereo not given), CC1(C)CC(=O)C=C(Nc2ccc(O)c(C(=O)O)c2)C1, Cc1c(Cl)ccc2sc(NC(=O)c3ccc(S(=O)(=O)N4CCCC4)cc3)nc12, O=[N+]([O-])c1cc(S(=O)(=O)N2CCCC2)ccc1O, CCn1c(SCC(=O)Nc2ccc(C)cc2)nc2sc3c(c2c1=O)CCN(C)C3, Cc1nn2c(=O)cc(COC(=O)c3ccccc3NC(=O)C(C)C)nc2s1, COc1cccc(CNC(=O)CCS(=O)(=O)c2cc3c4c(c2)CCN4C(=O)CC3)c1, Cc1ccccc1NC(=O)CSc1nnc(-c2cccc(Cl)c2)o1, Cc1ccccc1-n1ncc2c1CC(C)(C)CC2NC(=O)c1ccncc1 (stereo not given), O=C(NC(=S)Nc1ncccn1)c1ccc(F)cc1, CCOc1cc(/C=C2\SC(=O)N=C2N)ccc1O, O=C(NCCC(=O)N1CCN(S(=O)(=O)c2ccccc2F)CC1)Nc1ccccc1, Cc1ccc2c(CC(=O)N3CCOCC3)coc2c1, O=C(NNS(=O)(=O)c1ccc([N+](=O)[O-])cc1)c1cnn(-c2ccccc2)c1-n1cccc1, COc1ccc(N2CC(NC(=O)C3CCCC3)CC2=O)cc1 (stereo not given), O=C(NCCn1cccn1)C1CCC(=O)N(CCc2ccc(Cl)cc2)C1 (stereo not given)
